{
  "source": "the supplement of paper PMC8728848",
  "assay_in_all_cases": "glycan array binding signal (z-score within array); higher = stronger binding",
  "details_in_all_cases": "glycan notation: IUPAC condensed, linker removed",
  "key": {"[1]": {"biological_target": "Gal(b1-4)GlcNAc(b1-2)[Gal(b1-4)GlcNAc(b1-6)]Man(a1-6)[Gal(b1-4)GlcNAc(b1-2)Man(a1-3)]Man(b1-4)GlcNAc(b1-4)[Fuc(a1-6)]GlcNAc", "procedure,_shortened": "(§1)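 From the Consortium for Functional Glycomics database, 3228 arrays were curated, keeping only those whose protein sequence was available. Binding is given as a within-array Z-score averaged across arrays sharing a protein sequence and across linkers. Negative Z-scores can be read as non-binding.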"}, "[2]": {"biological_target": "Gal(b1-4)GlcNAc(b1-2)[Gal(b1-4)GlcNAc(b1-6)]Man(a1-6)[GlcNAc(b1-4)][Gal(b1-4)GlcNAc(b1-2)Man(a1-3)]Man(b1-4)GlcNAc(b1-4)GlcNAc", "procedure,_shortened": "as §1"}, "[3]": {"biological_target": "Gal(b1-4)GlcNAc(b1-2)[Gal(b1-4)GlcNAc(b1-6)]Man(a1-6)[GlcNAc(b1-4)][Gal(b1-4)GlcNAc(b1-2)[Gal(b1-4)GlcNAc(b1-4)]Man(a1-3)]Man(b1-4)GlcNAc(b1-4)[Fuc(a1-6)]GlcNAc", "procedure,_shortened": "as §1"}, "[4]": {"biological_target": "Gal(b1-4)GlcNAc(b1-3)Gal(b1-3)GalNAc", "procedure,_shortened": "as §1"}, "[5]": {"biological_target": "Gal(b1-4)GlcNAc(b1-3)Gal(b1-3)GlcNAc", "procedure,_shortened": "as §1"}, "[6]": {"biological_target": "Gal(b1-4)GlcNAc(b1-3)Gal(b1-4)Glc", "procedure,_shortened": "as §1"}, "[7]": {"biological_target": "Gal(b1-4)GlcNAc(b1-3)Gal(b1-4)GlcNAc", "procedure,_shortened": "as §1"}, "[8]": {"biological_target": "Gal(b1-4)GlcNAc(b1-3)Gal(b1-4)GlcNAc(b1-2)Man(a1-3)[Gal(b1-4)GlcNAc(b1-3)Gal(b1-4)GlcNAc(b1-2)Man(a1-6)]Man(b1-4)GlcNAc(b1-4)GlcNAc", "procedure,_shortened": "as §1"}, "[9]": {"biological_target": "Gal(b1-4)GlcNAc(b1-3)Gal(b1-4)GlcNAc(b1-2)Man(a1-3)[Gal(b1-4)GlcNAc(b1-3)Gal(b1-4)GlcNAc(b1-2)Man(a1-6)]Man(b1-4)GlcNAc(b1-4)[Fuc(a1-6)]GlcNAc", "procedure,_shortened": "as §1"}, "[10]": {"biological_target": "Gal(b1-4)GlcNAc(b1-3)Gal(b1-4)GlcNAc(b1-2)[Gal(b1-4)GlcNAc(b1-3)Gal(b1-4)GlcNAc(b1-6)]Man(a1-6)[Gal(b1-4)GlcNAc(b1-3)Gal(b1-4)GlcNAc(b1-2)Man(a1-3)]Man(b1-4)GlcNAc(b1-4)GlcNAc", "procedure,_shortened": "as §1"}, "[11]": {"biological_target": "Gal(b1-4)GlcNAc(b1-3)Gal(b1-4)GlcNAc(b1-2)[Gal(b1-4)GlcNAc(b1-3)Gal(b1-4)GlcNAc(b1-6)]Man(a1-6)[Gal(b1-4)GlcNAc(b1-3)Gal(b1-4)GlcNAc(b1-2)Man(a1-3)]Man(b1-4)GlcNAc(b1-4)[Fuc(a1-6)]GlcNAc", "procedure,_shortened": "as §1"}, "[12]": {"biological_target": "Gal(b1-4)GlcNAc(b1-3)Gal(b1-4)GlcNAc(b1-3)Gal(b1-4)GlcNAc", "procedure,_shortened": "as §1"}, "[13]": {"biological_target": "Gal(b1-4)GlcNAc(b1-3)Gal(b1-4)GlcNAc(b1-3)Gal(b1-4)GlcNAc(b1-2)Man(a1-3)[Gal(b1-4)GlcNAc(b1-3)Gal(b1-4)GlcNAc(b1-3)Gal(b1-4)GlcNAc(b1-2)Man(a1-6)]Man(b1-4)GlcNAc(b1-4)GlcNAc", "procedure,_shortened": "as §1"}, "[14]": {"biological_target": "Gal(b1-4)GlcNAc(b1-3)Gal(b1-4)GlcNAc(b1-3)Gal(b1-4)GlcNAc(b1-2)Man(a1-3)[Gal(b1-4)GlcNAc(b1-3)Gal(b1-4)GlcNAc(b1-3)Gal(b1-4)GlcNAc(b1-2)Man(a1-6)]Man(b1-4)GlcNAc(b1-4)[Fuc(a1-6)]GlcNAc", "procedure,_shortened": "as §1"}, "[15]": {"biological_target": "Gal(b1-4)GlcNAc(b1-3)Gal(b1-4)GlcNAc(b1-3)Gal(b1-4)GlcNAc(b1-2)[Gal(b1-4)GlcNAc(b1-3)Gal(b1-4)GlcNAc(b1-3)Gal(b1-4)GlcNAc(b1-6)]Man(a1-6)[Gal(b1-4)GlcNAc(b1-3)Gal(b1-4)GlcNAc(b1-3)Gal(b1-4)GlcNAc(b1-2)Man(a1-3)]Man(b1-4)GlcNAc(b1-4)[Fuc(a1-6)]GlcNAc", "procedure,_shortened": "as §1"}, "[16]": {"biological_target": "Gal(b1-4)GlcNAc(b1-3)Gal(b1-4)GlcNAc(b1-3)Gal(b1-4)GlcNAc(b1-3)Gal(b1-4)GlcNAc(b1-2)Man(a1-3)[Gal(b1-4)GlcNAc(b1-3)Gal(b1-4)GlcNAc(b1-3)Gal(b1-4)GlcNAc(b1-3)Gal(b1-4)GlcNAc(b1-2)Man(a1-6)]Man(b1-4)GlcNAc(b1-4)GlcNAc", "procedure,_shortened": "as §1"}, "[17]": {"biological_target": "Gal(b1-4)GlcNAc(b1-3)Gal(b1-4)GlcNAc(b1-3)Gal(b1-4)GlcNAc(b1-3)Gal(b1-4)GlcNAc(b1-2)Man(a1-3)[Gal(b1-4)GlcNAc(b1-3)Gal(b1-4)GlcNAc(b1-3)Gal(b1-4)GlcNAc(b1-3)Gal(b1-4)GlcNAc(b1-2)Man(a1-6)]Man(b1-4)GlcNAc(b1-4)[Fuc(a1-6)]GlcNAc", "procedure,_shortened": "as §1"}, "[18]": {"biological_target": "Gal(b1-4)GlcNAc(b1-3)Gal(b1-4)GlcNAc(b1-3)Gal(b1-4)GlcNAc(b1-3)Gal(b1-4)GlcNAc(b1-2)[Gal(b1-4)GlcNAc(b1-3)Gal(b1-4)GlcNAc(b1-3)Gal(b1-4)GlcNAc(b1-3)Gal(b1-4)GlcNAc(b1-6)]Man(a1-6)[Gal(b1-4)GlcNAc(b1-3)Gal(b1-4)GlcNAc(b1-3)Gal(b1-4)GlcNAc(b1-3)Gal(b1-4)GlcNAc(b1-2)Man(a1-3)]Man(b1-4)GlcNAc(b1-4)[Fuc(a1-6)]GlcNAc", "procedure,_shortened": "as §1"}, "[19]": {"biological_target": "Gal(b1-4)GlcNAc(b1-3)Gal(b1-4)GlcNAc(b1-3)Gal(b1-4)GlcNAc(b1-3)Gal(b1-4)GlcNAc(b1-3)Gal(b1-4)GlcNAc(b1-2)Man(a1-3)[Gal(b1-4)GlcNAc(b1-3)Gal(b1-4)GlcNAc(b1-3)Gal(b1-4)GlcNAc(b1-3)Gal(b1-4)GlcNAc(b1-3)Gal(b1-4)GlcNAc(b1-2)Man(a1-6)]Man(b1-4)GlcNAc(b1-4)GlcNAc", "procedure,_shortened": "as §1"}, "[20]": {"biological_target": "Gal(b1-4)GlcNAc(b1-3)Gal(b1-4)GlcNAc(b1-3)Gal(b1-4)GlcNAc(b1-3)Gal(b1-4)GlcNAc(b1-3)Gal(b1-4)GlcNAc(b1-2)Man(a1-3)[Gal(b1-4)GlcNAc(b1-3)Gal(b1-4)GlcNAc(b1-3)Gal(b1-4)GlcNAc(b1-3)Gal(b1-4)GlcNAc(b1-3)Gal(b1-4)GlcNAc(b1-2)Man(a1-6)]Man(b1-4)GlcNAc(b1-4)[Fuc(a1-6)]GlcNAc", "procedure,_shortened": "as §1"}, "[21]": {"biological_target": "Gal(b1-4)GlcNAc(b1-3)Gal(b1-4)GlcNAc(b1-3)Gal(b1-4)GlcNAc(b1-3)Gal(b1-4)GlcNAc(b1-3)Gal(b1-4)GlcNAc(b1-2)[Gal(b1-4)GlcNAc(b1-3)Gal(b1-4)GlcNAc(b1-3)Gal(b1-4)GlcNAc(b1-3)Gal(b1-4)GlcNAc(b1-3)Gal(b1-4)GlcNAc(b1-6)]Man(a1-6)[Gal(b1-4)GlcNAc(b1-3)Gal(b1-4)GlcNAc(b1-3)Gal(b1-4)GlcNAc(b1-3)Gal(b1-4)GlcNAc(b1-3)Gal(b1-4)GlcNAc(b1-2)Man(a1-3)]Man(b1-4)GlcNAc(b1-4)[Fuc(a1-6)]GlcNAc", "procedure,_shortened": "as §1"}, "[22]": {"biological_target": "Gal(b1-4)GlcNAc(b1-3)Gal(b1-4)GlcNAc(b1-3)Gal(b1-4)GlcNAc(b1-3)Gal(b1-4)GlcNAc(b1-3)Gal(b1-4)GlcNAc(b1-3)Gal(b1-4)GlcNAc(b1-2)Man(a1-3)[Gal(b1-4)GlcNAc(b1-3)Gal(b1-4)GlcNAc(b1-3)Gal(b1-4)GlcNAc(b1-3)Gal(b1-4)GlcNAc(b1-3)Gal(b1-4)GlcNAc(b1-3)Gal(b1-4)GlcNAc(b1-2)Man(a1-6)]Man(b1-4)GlcNAc(b1-4)GlcNAc", "procedure,_shortened": "as §1"}, "[23]": {"biological_target": "Gal(b1-4)GlcNAc(b1-3)Gal(b1-4)GlcNAc(b1-3)GalNAc", "procedure,_shortened": "as §1"}},
  "note": "The other results are listed elsewhere or left out.",
  "data": [
    {"binder": "CGL (Crenomytilus grayanus), H2FH31 (protein) MTTFLIKHKASGKFLHPYGGSSNPANNTKLVLHSDIHERMYFQFDVVDERWGYIKHVASGKIVHPYGGQANPPNETNMVLHQDRHDRALFAMDFFNDNIMHKGGKYIHPKGGSPNPPNNTETVIHGDKHAAMEFIFVSPKNKDKRVLVYA", "values": [
      {"measurement": "glycan array binding signal (z-score)", "setting": "[1]", "value": 2.02},
      {"measurement": "glycan array binding signal (z-score)", "setting": "[2]", "value": 0.034},
      {"measurement": "glycan array binding signal (z-score)", "setting": "[3]", "value": 0.462},
      {"measurement": "glycan array binding signal (z-score)", "setting": "[4]", "value": -0.223},
      {"measurement": "glycan array binding signal (z-score)", "setting": "[5]", "value": -0.363},
      {"measurement": "glycan array binding signal (z-score)", "setting": "[6]", "value": 0.039},
      {"measurement": "glycan array binding signal (z-score)", "setting": "[7]", "value": 0.342},
      {"measurement": "glycan array binding signal (z-score)", "setting": "[8]", "value": 0.731},
      {"measurement": "glycan array binding signal (z-score)", "setting": "[9]", "value": 1.71},
      {"measurement": "glycan array binding signal (z-score)", "setting": "[10]", "value": 0.666},
      {"measurement": "glycan array binding signal (z-score)", "setting": "[11]", "value": 2.65},
      {"measurement": "glycan array binding signal (z-score)", "setting": "[12]", "value": 0.096},
      {"measurement": "glycan array binding signal (z-score)", "setting": "[13]", "value": 1.16},
      {"measurement": "glycan array binding signal (z-score)", "setting": "[14]", "value": 2.72},
      {"measurement": "glycan array binding signal (z-score)", "setting": "[15]", "value": 3.3},
      {"measurement": "glycan array binding signal (z-score)", "setting": "[16]", "value": 2.73},
      {"measurement": "glycan array binding signal (z-score)", "setting": "[17]", "value": 2.79},
      {"measurement": "glycan array binding signal (z-score)", "setting": "[18]", "value": 3.02},
      {"measurement": "glycan array binding signal (z-score)", "setting": "[19]", "value": 3.18},
      {"measurement": "glycan array binding signal (z-score)", "setting": "[20]", "value": 2.77},
      {"measurement": "glycan array binding signal (z-score)", "setting": "[21]", "value": 3.77},
      {"measurement": "glycan array binding signal (z-score)", "setting": "[22]", "value": 1.14},
      {"measurement": "glycan array binding signal (z-score)", "setting": "[23]", "value": -0.173}
    ]}
  ]
}
